Test results: PMC12820563, “FoxP3 forms a head-to-head dimer in vivo and stabilizes its multimerization on adjacent microsatellites”
The list shows a part of the results.

molecular target: T1, MBP-FoxP1dN (Mus musculus, UniProt P58462 326-579); assay: PD-seq (MBP pull-down with sequencing); 20 mM Tris-HCl pH 7.5, 100 mM NaCl, 1.5 mM MgCl2, 0.4 uM protein, 0.1 uM dsDNA library, 30 min, room temperature, amylose pull-down; high values mean tight binding; details: protein: recombinant; tags: His6-MBP; chain copies: 2; dsDNA, one strand shown
T1 sequence: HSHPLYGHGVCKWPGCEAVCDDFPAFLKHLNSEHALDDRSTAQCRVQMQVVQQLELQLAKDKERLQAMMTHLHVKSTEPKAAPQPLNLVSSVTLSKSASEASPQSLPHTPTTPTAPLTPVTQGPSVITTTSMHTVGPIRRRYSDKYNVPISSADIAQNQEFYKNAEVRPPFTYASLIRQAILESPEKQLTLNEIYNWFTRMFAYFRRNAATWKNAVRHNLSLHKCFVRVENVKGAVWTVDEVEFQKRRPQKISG
In short: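 In Tris pH 7.5 buffer with NaCl and MgCl2, 0.4 µM His6-MBP-tagged mouse FoxP3 or FoxP1 fragment lacking the N-terminus, from E. coli, met 0.1 µM Klenow-filled double-stranded degenerate DNA library for 30 min at room temperature. Three washes on amylose resin followed capture of the complexes, then proteinase K release of DNA, PCR barcoding and Illumina sequencing. Binding is taken as pooled-replicate reads-per-million enrichment of pull-down relative to input.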

Sequence | binding signal
GATGATTGTTCTCCCAGCTGATGAATTCTTTCCGTCGAGTAAACAAATTTTCCTAATCTTTCTGTTCAAGCGCCATCTAC | 0.812 RPM ratio (pull-down/input)
GATGATTGTTCTCCCAGCTGATGAATTCCGATACTCGAGTAAACAAATTTTCCTAATCTTTCTGTTCAAGCGCCATCTAC | 0.914 RPM ratio (pull-down/input)
GATGATTGTTCTCCCAGCTGATGAATTTAATATGTCGAGTAAACAAATTTTCCTAATCTTTCTGTTCAAGCGCCATCTAC | 0.979 RPM ratio (pull-down/input)
GATGATTGTTCTCCCAGCTGATGAATTCAGTGTCTCGAGTAAACAAATTTTCCTAATCTTTCTGTTCAAGCGCCATCTAC | 0.912 RPM ratio (pull-down/input)
GATGATTGTTCTCCCAGCTGATGAATTTGATCTCTCGAGTAAACAAATTTTCCTAATCTTTCTGTTCAAGCGCCATCTAC | 0.786 RPM ratio (pull-down/input)
GATGATTGTTCTCCCAGCTGATGAATTCCCGCCTTCGAGTAAACAAATTTTCCTAATCTTTCTGTTCAAGCGCCATCTAC | 0.932 RPM ratio (pull-down/input)
GATGATTGTTCTCCCAGCTGATGAATTGATATTGTCGAGTAAACAAATTTTCCTAATCTTTCTGTTCAAGCGCCATCTAC | 2.35 RPM ratio (pull-down/input)
GATGATTGTTCTCCCAGCTGATGAATTTTTAATATCGAGTAAACAAATTTTCCTAATCTTTCTGTTCAAGCGCCATCTAC | 1.24 RPM ratio (pull-down/input)
GATGATTGTTCTCCCAGCTGATGAATTTCATATCTCGAGTAAACAAATTTTCCTAATCTTTCTGTTCAAGCGCCATCTAC | 0.89 RPM ratio (pull-down/input)
GATGATTGTTCTCCCAGCTGATGAATTAATGCTGTCGAGTAAACAAATTTTCCTAATCTTTCTGTTCAAGCGCCATCTAC | 1.37 RPM ratio (pull-down/input)
GATGATTGTTCTCCCAGCTGATGAATTAGTAAATTCGAGTAAACAAATTTTCCTAATCTTTCTGTTCAAGCGCCATCTAC | 1.2 RPM ratio (pull-down/input)
GATGATTGTTCTCCCAGCTGATGAATTTAGGCCTTCGAGTAAACAAATTTTCCTAATCTTTCTGTTCAAGCGCCATCTAC | 0.957 RPM ratio (pull-down/input)
GATGATTGTTCTCCCAGCTGATGAATTGAATGCTTCGAGTAAACAAATTTTCCTAATCTTTCTGTTCAAGCGCCATCTAC | 1.1 RPM ratio (pull-down/input)
GATGATTGTTCTCCCAGCTGATGAATTATCTAACTCGAGTAAACAAATTTTCCTAATCTTTCTGTTCAAGCGCCATCTAC | 0.938 RPM ratio (pull-down/input)
GATGATTGTTCTCCCAGCTGATGAATTCTTTATATCGAGTAAACAAATTTTCCTAATCTTTCTGTTCAAGCGCCATCTAC | 1.02 RPM ratio (pull-down/input)
GATGATTGTTCTCCCAGCTGATGAATTCACAAAGTCGAGTAAACAAATTTTCCTAATCTTTCTGTTCAAGCGCCATCTAC | 0.841 RPM ratio (pull-down/input)
GATGATTGTTCTCCCAGCTGATGAATTTTGGCGTTCGAGTAAACAAATTTTCCTAATCTTTCTGTTCAAGCGCCATCTAC | 0.983 RPM ratio (pull-down/input)
GATGATTGTTCTCCCAGCTGATGAATTATCTCATTCGAGTAAACAAATTTTCCTAATCTTTCTGTTCAAGCGCCATCTAC | 1.03 RPM ratio (pull-down/input)
GATGATTGTTCTCCCAGCTGATGAATTTTGGTAATCGAGTAAACAAATTTTCCTAATCTTTCTGTTCAAGCGCCATCTAC | 1.46 RPM ratio (pull-down/input)
GATGATTGTTCTCCCAGCTGATGAATTAACCACTTCGAGTAAACAAATTTTCCTAATCTTTCTGTTCAAGCGCCATCTAC | 0.924 RPM ratio (pull-down/input)

Sequence | binding signal
GATGATTGTTCTCCCAGCTGATGAATTGCGTTATTCGAGTAAACAAATTTTCCTAATCTTTCTGTTCAAGCGCCATCTAC | 1.27 RPM ratio (pull-down/input)
GATGATTGTTCTCCCAGCTGATGAATTCTAAGGTTCGAGTAAACAAATTTTCCTAATCTTTCTGTTCAAGCGCCATCTAC | 0.801 RPM ratio (pull-down/input)
GATGATTGTTCTCCCAGCTGATGAATTACCGGGGTCGAGTAAACAAATTTTCCTAATCTTTCTGTTCAAGCGCCATCTAC | 0.823 RPM ratio (pull-down/input)
GATGATTGTTCTCCCAGCTGATGAATTCTCAACTTCGAGTAAACAAATTTTCCTAATCTTTCTGTTCAAGCGCCATCTAC | 0.844 RPM ratio (pull-down/input)
GATGATTGTTCTCCCAGCTGATGAATTCACTTAGTCGAGTAAACAAATTTTCCTAATCTTTCTGTTCAAGCGCCATCTAC | 0.871 RPM ratio (pull-down/input)
GATGATTGTTCTCCCAGCTGATGAATTTCTGTAATCGAGTAAACAAATTTTCCTAATCTTTCTGTTCAAGCGCCATCTAC | 1.49 RPM ratio (pull-down/input)
GATGATTGTTCTCCCAGCTGATGAATTCAAGGCCTCGAGTAAACAAATTTTCCTAATCTTTCTGTTCAAGCGCCATCTAC | 0.822 RPM ratio (pull-down/input)
GATGATTGTTCTCCCAGCTGATGAATTTGCCGTTTCGAGTAAACAAATTTTCCTAATCTTTCTGTTCAAGCGCCATCTAC | 0.923 RPM ratio (pull-down/input)
GATGATTGTTCTCCCAGCTGATGAATTACACACTTCGAGTAAACAAATTTTCCTAATCTTTCTGTTCAAGCGCCATCTAC | 1.26 RPM ratio (pull-down/input)
GATGATTGTTCTCCCAGCTGATGAATTACGGCTATCGAGTAAACAAATTTTCCTAATCTTTCTGTTCAAGCGCCATCTAC | 0.95 RPM ratio (pull-down/input)
GATGATTGTTCTCCCAGCTGATGAATTACACGGCTCGAGTAAACAAATTTTCCTAATCTTTCTGTTCAAGCGCCATCTAC | 0.917 RPM ratio (pull-down/input)
GATGATTGTTCTCCCAGCTGATGAATTCAGTAATTCGAGTAAACAAATTTTCCTAATCTTTCTGTTCAAGCGCCATCTAC | 1.02 RPM ratio (pull-down/input)
GATGATTGTTCTCCCAGCTGATGAATTATTGGTGTCGAGTAAACAAATTTTCCTAATCTTTCTGTTCAAGCGCCATCTAC | 1.41 RPM ratio (pull-down/input)
GATGATTGTTCTCCCAGCTGATGAATTGCCTTGTTCGAGTAAACAAATTTTCCTAATCTTTCTGTTCAAGCGCCATCTAC | 0.911 RPM ratio (pull-down/input)
GATGATTGTTCTCCCAGCTGATGAATTTAAGCAATCGAGTAAACAAATTTTCCTAATCTTTCTGTTCAAGCGCCATCTAC | 1.22 RPM ratio (pull-down/input)
GATGATTGTTCTCCCAGCTGATGAATTAAACCTTTCGAGTAAACAAATTTTCCTAATCTTTCTGTTCAAGCGCCATCTAC | 0.928 RPM ratio (pull-down/input)
GATGATTGTTCTCCCAGCTGATGAATTTACACTCTCGAGTAAACAAATTTTCCTAATCTTTCTGTTCAAGCGCCATCTAC | 1.33 RPM ratio (pull-down/input)
GATGATTGTTCTCCCAGCTGATGAATTGGCGAATTCGAGTAAACAAATTTTCCTAATCTTTCTGTTCAAGCGCCATCTAC | 0.896 RPM ratio (pull-down/input)
GATGATTGTTCTCCCAGCTGATGAATTGATTTTTTCGAGTAAACAAATTTTCCTAATCTTTCTGTTCAAGCGCCATCTAC | 1.25 RPM ratio (pull-down/input)
GATGATTGTTCTCCCAGCTGATGAATTGAATACGTCGAGTAAACAAATTTTCCTAATCTTTCTGTTCAAGCGCCATCTAC | 0.971 RPM ratio (pull-down/input)
